Measured values taken from PubChem BioAssay AID1347073 (National Center for Advancing Translational Sciences (NCATS), 2019).
The campaign covered roughly 45,000 compounds. About 200 (0.44%) were called active. Inconclusive results (about 7%) are left out. The call rests on the fitted dose curve; in most records, active means well fitted activation curve with a large enough effect; inconclusive means small, poorly fitted or top-dose-only effect; inactive means no such curve, though single readings can be large or run the other way. Some of the results follow.

Assay: qHTS of TDP-43 Inhibitors: NCGC Sytravon Library Screen; further: 0% is about no effect; nearly all actives have a fitted effect of over 55% in size
Conditions: yeast TDP-43 toxicity rescue, BacTiter-Glo growth, 24 h; series mostly up to 46.1 µM; growth rescue (activation): at the top concentration
In short: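 TDP-43-expressing yeast, pregrown in raffinose, seeded at OD600 0.02 in galactose medium with compound for 24 hr at 30 deg C. Growth read by BacTiter-Glo luminescence, so rescue of toxicity appears as activation.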

Compound	growth rescue (activation)
CC(=O)Nc1ccc(-c2ccnc3c2CC(C(=O)Nc2ccc4c(c2)OCO4)O3)cc1 (configuration not stated)	inactive: 10.9%
COc1ccc(NC(=O)C2(C)Cc3c(-c4cccc(NC(C)=O)c4)ccnc3O2)cn1 (configuration not stated)	inactive: 5.35%
CCNC(=O)C/C(C)=N/NC(=O)C1CCCCC1	inactive: 12.1%
COc1cccc(CCNC(=O)CC2C(=O)NCCN2CC(C)(C)C)c1 (configuration not stated)	inactive: 4.93%
CCCN1Cc2cccc(C(=O)NC(CC(=O)OCC)c3ccc(OCC)c(OC)c3)c2C1=O (configuration not stated)	inactive: -3.43%
COc1ccc(C(=O)OCC(=O)NC2CCCCCC2)c(OC)c1	inactive: 18.6%
CCN(CC)S(=O)(=O)c1cc(NC(=O)COC(=O)CCC(=O)c2cccs2)ccc1C	inactive: 7.88%
Nc1c(Cl)ncnc1N/N=C/c1ccncc1	inactive: -4.83%
Cc1ccccc1-n1c(-c2ccncc2)n[nH]c1=S	inactive: 5.66%
CCCN(C(=O)C(NC(=O)c1ccccc1)C(C)C)c1c(N)n(Cc2ccccc2)c(=O)[nH]c1=O (configuration not stated)	inactive: 33%
COc1cc(/C=N/Nc2ccccc2[N+](=O)[O-])ccc1OC(=O)c1ccccc1F	inactive: -0.65%
O=C(NC(c1ccc(Cl)cc1)c1cnccn1)C1CCN(CCOc2ccc(F)cc2)CC1 (configuration not stated)	inactive: 4.61%
COC(=O)C(NS(=O)(=O)c1ccc(F)cc1)c1ccccc1 (configuration not stated)	inactive: -12.9%
CC(C)NS(=O)(=O)c1ccc(CCC(=O)N2CCc3ccccc3C2)cc1	inactive: 5.83%
Cc1ccc(C2=CSC3=NNC4(CCCCC4)NN23)cc1	inactive: 20.3%
N#Cc1ccsc1NC(=O)COC(=O)c1ccc2ccccc2c1	inactive: -1.15%
Cn1c(=O)[nH]c(=O)c2c1nc(N/N=C/C(Br)=C/c1ccccc1)n2CCO	inactive: 10.7%
CCn1c(SCC(=O)N/N=C(\C)c2ccncc2)nnc1-c1ccc(C)cc1	inactive: 8.63%
COC(=O)c1ccc(NC(=O)N2CCc3c([nH]c4ccccc34)C2c2ccc(C)cc2)cc1 (configuration not stated)	inactive: 11.1%
Cc1cccc(S(=O)(=O)NC(=O)C2(C)CCN2C(=O)c2c(C)noc2C)c1 (configuration not stated)	inactive: 11.4%
COc1ccc(/C=C2\SC(=S)N(CCC(=O)Nc3cccc(O)c3)C2=O)cc1OC	inactive: 12.7%
O=C(CSc1ccc2nnc(-c3ccccc3)n2n1)N1CCCCC1	inactive: -2.88%

Compound	growth rescue (activation)
O=C(CN1CCCCCCC1)Nc1cc(Cl)cc(Cl)c1	inactive: 12.6%
COc1cc(N)c(Cl)cc1C(=O)OCC(=O)NCC1CCCCC1	inactive: 23.4%
O=S(=O)(NCCCN1CCOCC1)c1ccc2ccccc2c1	inactive: -5.75%
COc1ccc(CNC(=O)COC(=O)/C=C/c2ccc(S(=O)(=O)N3CCOCC3)cc2)cc1	inactive: 0.168%
COc1ccc(/C=C/C(=O)Nc2cc(F)ccc2C)cc1S(=O)(=O)N1CCOCC1	inactive: 3.34%
COC(=O)c1ccccc1NC(=S)N(Cc1ccc2c(c1)OCO2)Cc1cc2ccc(OC)cc2[nH]c1=O	inactive: 15.8%
COc1ccc(S(=O)(=O)N2CCC(CN3C(=O)c4cccc5cccc(c45)C3=O)CC2)cc1	inactive: 22.6%
CCn1cc(CNC(=O)c2cc(-c3cc(OC)ccc3OC)nc3ccccc23)c(C)n1	inactive: 7.85%
CCC(Oc1ccccc1)C(=O)NC1C(=O)N2C1SC(C)(C)C2C(=O)O (configuration not stated)	inactive: 5.92%
O=C(/C=C/c1ccccc1Cl)Nc1ccncc1	inactive: 14.2%
Cc1cccc(N(C(=O)c2csnn2)C(C(=O)NC2CCCCC2)c2ccncc2)c1 (configuration not stated)	inactive: -12.5%
COc1ccc(/C=N/n2cnn(Cc3ccccc3Cl)c2=S)cc1	inactive: 9.74%
CN(C)C(=O)c1cn(-c2ccccc2)nc1-c1cc2ccccc2oc1=O	inactive: 4.28%
O=C(c1ccccc1)c1ccc(NCCCn2ccnc2)c([N+](=O)[O-])c1	inactive: -6.5%
CC1CCCCN1CC(=O)Nc1ccccc1Sc1ccccc1 (configuration not stated)	inactive: 15.5%
O=c1c2ccccc2[nH]c(=S)n1CCCN1CCN(c2ccccc2)CC1	inactive: -16.3%
COc1cccc(CNc2nc3ccccc3n2C)c1O	inactive: -3.77%
Nc1cc(Cl)ccc1C(=O)OCC(=O)NC(=O)NCc1ccccc1	inactive: 25%
CCc1ccc(OC2(C)CCN(Cc3ccccc3OC(F)F)C2)cc1 (configuration not stated)	inactive: 3.33%
CNC(=S)N(Cc1ccco1)Cc1cc2cc3c(cc2[nH]c1=O)OCCO3	inactive: -15.4%
O=C(CNC(=O)c1ccccc1O)N/N=C/c1ccccn1	inactive: -6.21%
CCNc1nc(SCC(=O)Nc2ccccc2)nc(N2CCOCC2)n1	inactive: 9.78%

Compound	growth rescue (activation)
O=C(/C=C/c1cccc([N+](=O)[O-])c1)NCc1ccco1	inactive: 18.7%
O=C(N/N=C/c1c[nH]c2ccccc12)c1cc(-c2ccc3ccccc3c2)n[nH]1	inactive: 14.4%
CCCNC(=S)N1CCN(CC)CC1	inactive: -3.47%
CC(=O)c1ccc(NC(=O)COC(=O)C2C3CC4OC(=O)C2C4C3)cc1 (configuration not stated)	inactive: 2.77%
COc1ccccc1N1CCN(C(=O)c2ccc3c(c2)N(Cc2ccccc2)C(=O)c2ccccc2S3(=O)=O)CC1	inactive: 33.1%
O=C(CNC(=O)c1ccccc1)OCC(=O)c1cccs1	inactive: -1.98%
Cc1ccc(-c2c[n+](Cc3ccc(Cl)c(Cl)c3)c3n2CCC3)cc1	inactive: 11.1%
CC(=O)c1cccc(-c2cnc3c(NC=O)cc(-c4ccccc4)cn23)c1	inactive: 10.1%
CCc1ccc(NC(=O)CCc2nc3ccccc3[nH]2)cc1	inactive: 5.43%
CCOC(=O)C1CCN(S(=O)(=O)c2cc(F)ccc2OC)CC1	inactive: 11.7%
CCCCCn1nc(C(=O)N(CC)c2c(N)n(CCCC)c(=O)[nH]c2=O)c2ccccc2c1=O	inactive: -12.6%
Clc1ccc2nnc(Cl)n2n1	inactive: -15.9%
CCN(CC)C(=O)C(=O)Nc1ccc(F)c(Cl)c1	inactive: 10.3%
NS(=O)(=O)c1ccc(NC(=S)NCc2ccccc2Cl)cc1	inactive: -4.71%
COC(=O)C1=NNC2(c3ccc(Cl)cc3)C(=O)N(c3ccccc3)C(=O)C12 (configuration not stated)	inactive: -13.2%
C=CCN(CC(=O)Nc1cccnc1)S(=O)(=O)c1ccc(Cl)cc1	inactive: -16.8%
O=C(NCc1ccccc1)c1cc(C2CCCCN2C(=O)OCCF)on1 (configuration not stated)	inactive: 2.45%
COc1cccc(/C=C2\SC(N)=NC2=O)c1OS(=O)(=O)c1ccccc1	inactive: -5.08%
COc1ccccc1N1CCN(C2CCCN(S(=O)(=O)c3cccc(Cl)c3)C2)CC1 (configuration not stated)	inactive: 6.46%
Cc1nn(-c2ccccc2)c(Cl)c1/C=C(/CC(=O)O)c1nc2ccccc2s1	inactive: -92.8%
CCN1CCN(C(=O)N(c2ccccc2)c2ccccc2)CC1	inactive: -19.1%
Cc1nc(NC(=O)COC(=O)c2ccc(CO)cc2)c(Cl)cc1Cl	inactive: 24.4%

Compound	growth rescue (activation)
Cc1ccc(OCCCn2ccnc2)cc1C	inactive: 6.89%
CCN1CCN(c2ccc(S(=O)(=O)N3CCCCC3)cc2NC(=O)c2ccc(F)cc2)CC1	inactive: 12.6%
O=C(NC(=S)/C(=C1\CCCCCN1)[N+](=O)[O-])c1ccccc1	inactive: 21.1%
CC(=O)c1cccc(NC(=O)Cn2cnc3c2c(=O)n(C)c(=O)n3C)c1	inactive: 5.52%
CC(Oc1ccc2ccccc2c1)C(=O)NNC(=O)Nc1ccccc1 (configuration not stated)	inactive: 10.3%
O=C(CN1CCN(Cc2ccc(Cl)cc2)CC1)N/N=C/c1ccncc1	inactive: -8.15%
CCCCn1c(=O)[nH]c(=O)c2c1nc(COc1ccc(C#N)cc1)n2CCC	inactive: 23.8%
CC1CCN(C(=O)COC(=O)Cn2cnc3ccccc32)CC1	inactive: 24.6%
C[N+]1(CCC(=O)c2ccccc2)CCCCC1	inactive: 6.44%
Cc1cc(NC(=O)C2CC(=O)N(c3ccccc3)C2)no1 (configuration not stated)	inactive: 12.7%
S=c1[nH]c2ccc(Cl)cc2[nH]1	inactive: -8.15%
CCC(=O)N1CCN(c2ccc(NC(=O)COc3ccc(C)cc3C)cc2)CC1	inactive: 27.5%
Cc1nnc(SCC(=O)c2ccc([N+](=O)[O-])cc2)s1	inactive: 8.97%
CC(=O)Nc1cccc(NCC(=O)Nc2cc(S(=O)(=O)N3CCCCC3)ccc2Cl)c1	inactive: 18.3%
COc1cccc(N2CCN(C(C)C(=O)NC34CC5CC(CC(C5)C3)C4)CC2)c1 (configuration not stated)	inactive: 0.423%
CCOC(=O)c1nc2sc3c(c2c(=O)n1C(C)C(=O)OCC)CCCC3 (configuration not stated)	inactive: 27%
CC(C)Cn1c(N)c(C(=O)COC(=O)c2ccc(Cl)cc2)c(=O)n(C)c1=O	inactive: 22.7%
CCC(C(=O)Nc1ncc(C)s1)c1ccccc1 (configuration not stated)	inactive: 0.6%
CC1CCN(C(=O)Cn2cc([N+](=O)[O-])ccc2=O)c2ccccc2S1 (configuration not stated)	inactive: -14.2%
O=C1c2ccccc2C(=O)N1Cc1cccnc1	inactive: -13%
COC(C(=O)Nc1ccnn1C1CCN(Cc2ccc(C)o2)CC1)c1ccccc1 (configuration not stated)	inactive: 1.12%
CCc1nc(SCC(=O)NC2CC2)c2c(C)c(C)sc2n1	inactive: 8.23%

Compound	growth rescue (activation)
CCC(=O)N1CCCC(C(=O)Nc2nc3ccccc3[nH]2)CC1 (configuration not stated)	inactive: 8.13%
COc1ccc(OC)c(NC(=O)N2CCC3(CC2)Oc2ccccc2C(=O)N3Cc2ccccc2F)c1	inactive: 28.8%
CCOC(=O)c1ccc(NC(=S)N(CCN2CCCCCC2)Cc2cccs2)cc1	inactive: 20.6%
O=C(CNC(=O)c1ccc(Cl)cc1)NCC(F)(F)F	inactive: 8.12%
Cc1ccc(OCC(=O)Nc2ccc(-n3cnnn3)cc2)c(C)c1	inactive: -6.68%
C=CCc1cc2c(oc(=O)c3ccccc32)c(C)c1O	inactive: 3.29%
Cc1csc(NC(=O)Nc2ccccc2[N+](=O)[O-])n1	inactive: 4.83%
N#Cc1c(Nc2cccc(F)c2)sc2c(O)cc(=O)[nH]c12	inactive: -4.73%
Cc1ccc(S(=O)(=O)c2nnn3c2nc(NC2CCCCC2)c2sccc23)cc1C	inactive: 7.86%
O=C(Nc1ccc2c(c1)OCO2)c1sc2cc(Cl)ccc2c1Cl	inactive: 13.8%
Cc1cc(C)cc(OCC(=O)N(Cc2ccco2)Cc2ccccc2Cl)c1	inactive: 17.7%
CC(C)c1nnc(NC(=O)CS(=O)(=O)c2ccccc2)s1	inactive: -14.1%
Cc1ccc(CNc2nc(NCc3ccccc3)nc3ccsc23)c(C)c1	inactive: 2.61%
COc1ccccc1C(=O)NCCN=C1NS(=O)(=O)c2ccccc21	inactive: 8.06%
CCOC(=O)c1oc2cc(O)c(CC)cc2c(=O)c1-c1cscn1	inactive: 7.23%
CCn1c(=O)n(CC)c2cc(NC(=O)CSc3ccc([N+](=O)[O-])cn3)ccc21	inactive: 15.2%
CCCS(=O)(=O)NC(=O)C1(C)CCN(C(=O)c2cc(C(C)(C)C)nn2C)C1 (configuration not stated)	inactive: 0.803%
CCOC(=O)C1=C(N)OC2=C(C(=O)CC(C)(C)C2)C1c1ccc(CC)s1 (configuration not stated)	inactive: 6.79%
CC(C)CCN1CC(=O)N2Cc3[nH]c4ccccc4c3C[C@H]2C1=O	inactive: -0.941%
